Description: Lipophilicity is one of the most important physico-chemical properties determining the biological activity of small molecules, affecting the non-specific diffusion through biological membranes. It is well known that antimycobacterial activity is often enhanced by increased lipophilicity, which facilitates the penetration through highly lipophilic mycobacterial outer envelope and cell wall. The lipophilicity of the prepared compounds was predicted as logP using commercially available software CS ChemDraw Ultra ver. 12.0 (CambridgeSoft, Cambridge, MA, USA). Additionally, the lipophilicity was measured experimentally by RP-HPLC and expressed as logk derived from retention times of individual compounds (see Table 1). […] Chem3D Pro’s (CambridgeSoft) built-in MM2 energy minimization function with default parameters was used to study the possibility of intramolecular H-bond formation. Indeed, all of these compounds were capable of forming the H-bond between the ortho substituent on the phenyl ring (lone electron pair as acceptor) and the hydrogen of the amide function (donor). The amide bond was in the trans configuration. See the model of compound 5 in Figure 1B for a representative example. As found in literature, the existence of this H-bond was confirmed experimentally for some similar anilides of POA (e.g., with ortho-NO2 substituent).
Instrumentation: Agilent Technologies 1200 SL liquid chromatograph with Diode-array Detector SL G1315C (Agilent Technologies Inc., Colorado Springs, CO, USA); pre-column ZORBAX XDB-C18 5 µm, 4 × 4 mm, Part No. 7995118-504 (Agilent Technologies Inc.) and column ZORBAX Eclipse XDB-C18 5 µm, 4.6 × 250 mm, Part No. 7995118-585 (Agilent Technologies Inc.). The separation process was controlled by Agilent ChemStation, version B.04.02 extended by spectral module (Agilent Technologies Inc.). Mobile phase consisted of MeOH (HPLC grade, 70%) and H2O (HPLC-Milli-Q Grade, 30%).
Conditions: Flow rate 1.0 mL/min, sample injection volume 20 µL, column temperature 30 °C, detection wavelength 210 nm, monitor wavelength 270 nm. Retention times (tR) were measured in minutes. The dead time of the system (tD) was determined as the retention time of KI methanol solution. Capacity factors k for individual compounds were calculated according to the formula k = (tR − tD)/tD. Logk, calculated from the capacity factor k, is used as the lipophilicity index converted to log scale.

| Structure (SMILES) | Lipophilicity logk |
| --- | --- |
| O=C(Nc1ccccc1)c1cnc(Cl)cn1 [Compound 1, 5-Chloro-N-phenylpyrazine-2-carboxamide] | 0.286 |
| O=C(Nc1ccccc1O)c1cnc(Cl)cn1 [Compound 2, 5-Chloro-N-(2-hydroxyphenyl)pyrazine-2-carboxamide] | 0.248 |
| O=C(Nc1cccc(O)c1)c1cnc(Cl)cn1 [Compound 3, 5-Chloro-N-(3-hydroxyphenyl)pyrazine-2-carboxamide] | −0.053 |
| O=C(Nc1ccc(O)cc1)c1cnc(Cl)cn1 [Compound 4, 5-Chloro-N-(4-hydroxyphenyl)pyrazine-2-carboxamide] | −0.138 |
| COc1ccc(NC(=O)c2cnc(Cl)cn2)c(OC)c1 [Compound 5] | 0.579 |
| Cc1ccc(C)c(NC(=O)c2cnc(Cl)cn2)c1 [Compound 6, 5-Chloro-N-(2,5-dimethylphenyl)pyrazine-2-carboxamide] | 0.618 |
| CCc1ccc(NC(=O)c2cnc(Cl)cn2)cc1 [Compound 7, 5-Chloro-N-(4-ethylphenyl)pyrazine-2-carboxamide] | 0.685 |
| CC(C)c1ccc(NC(=O)c2cnc(Cl)cn2)cc1 [Compound 8, 5-Chloro-N-(4-isopropylphenyl)pyrazine-2-carboxamide] | 0.859 |
| O=C(Nc1cccc(F)c1)c1cnc(Cl)cn1 [Compound 10, 5-Chloro-N-(3-fluorophenyl)pyrazine-2-carboxamide] | 0.389 |
| O=C(Nc1ccc(F)cc1F)c1cnc(Cl)cn1 [Compound 11, 5-Chloro-N-(2,4-difluorophenyl)pyrazine-2-carboxamide] | 0.477 |
| O=C(Nc1ccc(Cl)c(Cl)c1)c1cnc(Cl)cn1 [Compound 14, 5-Chloro-N-(3,4-dichlorophenyl)pyrazine-2-carboxamide] | 0.881 |
| O=C(Nc1cccc(Br)c1)c1cnc(Cl)cn1 [Compound 16, 5-Chloro-N-(3-bromophenyl)pyrazine-2-carboxamide] | 0.646 |
| Cc1ccc(F)cc1NC(=O)c1cnc(Cl)cn1 [Compound 19, 5-Chloro-N-(5-fluoro-2-methylphenyl)pyrazine-2-carboxamide] | 0.525 |
| Cc1ccc(Cl)c(NC(=O)c2cnc(Cl)cn2)c1 [Compound 20, 5-Chloro-N-(2-chloro-5-methylphenyl)pyrazine-2-carboxamide] | 1.061 |
| O=C(Nc1cc(Cl)ccc1O)c1cnc(Cl)cn1 [Compound 21, 5-Chloro-N-(5-chloro-2-hydroxyphenyl)pyrazine-2-carboxamide] | 0.602 |
| O=C(Nc1ccc(O)c(Cl)c1)c1cnc(Cl)cn1 [Compound 22, 5-Chloro-N-(3-chloro-4-hydroxyphenyl)pyrazine-2-carboxamide] | 0.070 |
| O=C(Nc1cc([N+](=O)[O-])ccc1O)c1cnc(Cl)cn1 [Compound 23, 5-Chloro-N-(2-hydroxy-5-nitrophenyl)pyrazine-2-carboxamide] | 0.230 |
| O=C(Nc1ccccc1[N+](=O)[O-])c1cnc(Cl)cn1 [Compound 24, 5-Chloro-N-(2-nitrophenyl)pyrazine-2-carboxamide] | 0.674 |
| N#Cc1cccc(NC(=O)c2cnc(Cl)cn2)c1 [Compound 26, 5-Chloro-N-(3-cyanophenyl)pyrazine-2-carboxamide] | 0.192 |
| N#Cc1ccc(NC(=O)c2cnc(Cl)cn2)cc1 [Compound 27, 5-Chloro-N-(4-cyanophenyl)pyrazine-2-carboxamide] | 0.201 |
| O=C(Nc1cccc(C(F)(F)F)c1)c1cnc(Cl)cn1 [Compound 28, 5-Chloro-N-(3-(trifluoromethyl)phenyl)pyrazine-2-carboxamide] | 0.643 |
| O=C(Nc1ccc(C(F)(F)F)cc1)c1cnc(Cl)cn1 [Compound 29, 5-Chloro-N-(4-(trifluoromethyl)phenyl)pyrazine-2-carboxamide] | 0.704 |

Reference: article PMC6270209, “Synthesis, Antimycobacterial Activity and In Vitro Cytotoxicity of 5-Chloro-N-phenylpyrazine-2-carboxamides” (Molecules, 2013)
